The list shows a part of the results. The energies were worked out here from pooled read counts, against the library average; single values are noisy.

The experiment deals with T1, Pho4 (S. cerevisiae) (UniProt P07270).
T1 sequence: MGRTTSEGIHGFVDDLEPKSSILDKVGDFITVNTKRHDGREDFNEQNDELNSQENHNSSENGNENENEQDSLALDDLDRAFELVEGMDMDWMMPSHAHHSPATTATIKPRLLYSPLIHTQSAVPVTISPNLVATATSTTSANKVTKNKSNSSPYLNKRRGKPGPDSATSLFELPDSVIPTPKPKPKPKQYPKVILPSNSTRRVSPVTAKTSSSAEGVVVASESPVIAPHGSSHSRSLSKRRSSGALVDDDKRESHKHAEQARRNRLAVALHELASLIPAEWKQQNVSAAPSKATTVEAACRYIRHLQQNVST
The experiment can be described thus: relative binding free energy (BET-seq); higher = weaker binding. The settings on record: reference: library average.
As for TGTTGCACGTGGCACG, the “relative binding free energy” value is -0.19 kcal/mol.
For the sequence TGTGTCACGTGCGATG, the “relative binding free energy” value worked out at 0.13 kcal/mol.
Turning to ATGAGCACGTGGAGAG, the “relative binding free energy” value is -0.11 kcal/mol.
Turning to ATCGGCACGTGTCGGT, the “relative binding free energy” value is -0.13 kcal/mol.
Regarding GGGGTCACGTGGATTG, the “relative binding free energy” value is 0.26 kcal/mol.
AGATGCACGTGACTTG: the “relative binding free energy” value amounted to 0.08 kcal/mol.
Consider GTATGCACGTGTTTTG, for which the “relative binding free energy” value was found to be 0.08 kcal/mol.
In the case of CTTATCACGTGGTCTT it was 0.07 kcal/mol; in that of GCGTGCACGTGGATTG, 0.06 kcal/mol.
Regarding TTTATCACGTGAATTG, the “relative binding free energy” value turned out to be 0.42 kcal/mol.
Turning to TTGTTCACGTGCTATG, the “relative binding free energy” value is 0.22 kcal/mol.
As for TAAATCACGTGGATGG, the “relative binding free energy” value is 0.18 kcal/mol.
As to TTCTTCACGTGTTTCT, the “relative binding free energy” value was 0.36 kcal/mol.
With TAGAGCACGTGGGAGG, the “relative binding free energy” value was -0.19 kcal/mol.
In the case of GTGGACACGTGATAAT it was 0.32 kcal/mol; in that of TATATCACGTGGACTG, 0.12 kcal/mol; in that of TGGTCCACGTGGTCTG, -0.14 kcal/mol.
On to TATGTCACGTGGTACA, for which the “relative binding free energy” value was -0.03 kcal/mol.
Turning to TTGAGCACGTGCGGTG, the “relative binding free energy” value was -0.16 kcal/mol.
In the case of TAGGTCACGTGATAGC it was 0.24 kcal/mol; in that of TGCTGCACGTGTTCGT, -0.18 kcal/mol; in that of GGGATCACGTGAGGGC, 0.31 kcal/mol.
Regarding CGCCTCACGTGGGGGT, the “relative binding free energy” value turned out to be 0.02 kcal/mol.
Consider TGTGTCACGTGAGTTT, for which the “relative binding free energy” value was 0.37 kcal/mol.
Turning to AGCTTCACGTGCGGGG, the “relative binding free energy” value stood at 0.11 kcal/mol.
Consider GCTTTCACGTGTGTGG, for which the “relative binding free energy” value came to 0.3 kcal/mol.
For CTATGCACGTGGGGTT, the “relative binding free energy” value is -0.15 kcal/mol.
In the case of TGCTACACGTGGTCGT it was 0.1 kcal/mol; in that of TAGTGCACGTGAGACG, 0.1 kcal/mol.
Consider CGCGGCACGTGCGGGA, for which the “relative binding free energy” value is -0.09 kcal/mol.
Take TCGTGCACGTGATGTT: the “relative binding free energy” value was determined as 0.16 kcal/mol.
In the case of TAGCTCACGTGTTGTG, the “relative binding free energy” value came to 0.17 kcal/mol.
As to TGGAACACGTGAGGGA, the “relative binding free energy” value came to 0.17 kcal/mol.
For the sequence TTGGTCACGTGGGCTA, the “relative binding free energy” value was -0.07 kcal/mol.
Consider CGTTGCACGTGAGGAG, for which the “relative binding free energy” value stood at 0.24 kcal/mol.
For the sequence GTGTCCACGTGACGTG, the “relative binding free energy” value stood at 0.18 kcal/mol.
Turning to AGTTACACGTGGGTAA, the “relative binding free energy” value is -0.1 kcal/mol.
For the sequence GTGCGCACGTGTTAAT, the “relative binding free energy” value was -0.04 kcal/mol.
TATGACACGTGGAAGT: the “relative binding free energy” value was 0.27 kcal/mol.
In the case of TTTATCACGTGTGTGA, the “relative binding free energy” value is 0.15 kcal/mol.
In the case of TGTTACACGTGAATGG, the “relative binding free energy” value turned out to be 0.32 kcal/mol.
In the case of TAGTTCACGTGATTGT, the “relative binding free energy” value worked out at 0.39 kcal/mol.
In the case of ATAGGCACGTGGGTCA it was -0.31 kcal/mol.
As for ACGGTCACGTGCAGGG, the “relative binding free energy” value is 0.02 kcal/mol.
As to TACAGCACGTGAGGGG, the “relative binding free energy” value worked out at 0.04 kcal/mol.
Consider GATCTCACGTGAGTTG, for which the “relative binding free energy” value came out at 0.33 kcal/mol.
For TTTATCACGTGATAGG, the “relative binding free energy” value was 0.16 kcal/mol.
Consider GGCGTCACGTGGTGTC, for which the “relative binding free energy” value turned out to be 0.01 kcal/mol.
In the case of CGAGTCACGTGTATTG it was 0.08 kcal/mol.
On to TTATTCACGTGGGTAC, for which the “relative binding free energy” value is 0.15 kcal/mol.
Regarding TTCTGCACGTGTTGGA, the “relative binding free energy” value was 0.1 kcal/mol.
In the case of GGGTACACGTGTTGTG, the “relative binding free energy” value stood at 0.11 kcal/mol.
In the case of GGGGACACGTGAGGAT it was 0.23 kcal/mol.
On to TAGGCCACGTGTAGGT, for which the “relative binding free energy” value is -0.01 kcal/mol.
For the sequence GGGTGCACGTGTTTGA, the “relative binding free energy” value is -0.01 kcal/mol.
For the sequence CGAAGCACGTGTTGGG, the “relative binding free energy” value was -0.04 kcal/mol.
Regarding GCGTTCACGTGGCAGG, the “relative binding free energy” value is 0.17 kcal/mol.
In the case of TTGGTCACGTGCTATG it was -0.06 kcal/mol; in that of ATTGGCACGTGTAGAA, -0.07 kcal/mol; in that of GTTGTCACGTGAAATT, 0.19 kcal/mol.
As for AAGGACACGTGGTTGT, the “relative binding free energy” value was 0.03 kcal/mol.
In the case of GGATGCACGTGGAGGC it was -0.02 kcal/mol.
Turning to TTGCACACGTGATTGT, the “relative binding free energy” value came to 0.19 kcal/mol.

The record behind these values is the BET-seq Pho4 binding data (Le et al. 2018).
